# According to the supplement of paper PMC12217912:
# This is one part of the list. Sequences were assembled here from the parent chain. Inactive controls read about 0.05.
# B1: TEV protease; numbered along this chain (parent)
# chain: MGESLFKGPRDYNPISSSICHLTNESDGHTTSLYGIGFGPFIITNKHLFRRNNGTLVVQSLHGVFKVKDTTTLQQHLVDGRDMIIIRMPKDFPPFPQKLKFREPQREERICLVTTNFQTKSMSSMVSDTSCTFPSGDGIFWKHWIQTKDGQCGSPLVSTRDGFIVGIHSASNFTNTNNYFTSVPKNFMELLTNQEAQQWVSGWRLNADSVLWGGHKVFMVKPEEPFQPVKEATQL
# Variants of: B1
# Assay: raw area under fraction-flipped curve 0-4 h after induction (AUC4h, not background-subtracted), DNA-recorder readout of cleavage of the substrate (dimensionless); higher = more cleavage of the substrate by the protease variant
# Conditions: temperature: 34 °C; time window: 0-4 h after rhamnose induction
# Method: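 In vivo DNA recorder in E. coli TOP10(DE3) ΔrhaA at 34 °C. Each TEVp single-site mutant (parent TEVp 0) is paired with a single-site variant of the 7-mer TEVs (canonical ENLYFQ|S). The substrate sits between flexible linkers in a Bxb1-sfGFP-TEVs-SsrA fusion, so cleavage stabilises Bxb1 and speeds flipping of a recombination array, read by NGS. The value is the raw area under the fraction-flipped curve over 0-4 h after rhamnose induction (AUC4h), with ≥20 reads per time point. It is not background-subtracted; inactive controls average about 0.047.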
# 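Further: Bxb1 expression induced with 0.2% (w/v) L-rhamnose at OD600 near 0.5, cultures sampled hourly, flipped fraction per protease–substrate barcode pair counted by paired-end Illumina sequencing.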
Variant,area with substrate ENLYCQS,area with substrate ENLYDQS,area with substrate ENLYEQS,area with substrate ENLYGQS,area with substrate ENLYHQS,area with substrate ENLYKQS,area with substrate ENLYLQS,area with substrate ENLYMQS,area with substrate ENLYNQS,area with substrate ENLYPQS,area with substrate ENLYRQS,area with substrate ENLYSQS,area with substrate ENLYTQS,area with substrate ENLYVQS,area with substrate ENLYWQS,area with substrate ENLYYQS,area with substrate ENLYIQS,area with substrate ENLYQQS,area with substrate ENLYAQS
K148N,0.0857,0.063,0.0715,0.0606,0.0518,0.0414,0.0702,0.0729,0.0597,0.0662,0.0658,0.0858,0.0742,0.0975,0.0623,0.0524,,,
R109C,0.1,0.0862,0.0738,0.0759,0.0763,0.0614,0.0861,0.0879,0.073,0.0674,0.0657,0.0956,,,,0.0428,0.108,,
T147Y,0.0588,0.0522,0.0225,0.0602,0.0485,0.0659,,0.0625,,0.0423,,,0.0639,,0.0622,,0.0462,0.0779,
K98Q,0.105,0.0657,0.0641,0.0425,0.0525,0.0669,,0.081,,0.0741,,,,0.138,,,,0.0443,0.0827
G39V,,0.0454,0.0511,0.0414,0.0534,0.042,0.047,0.0446,0.0383,0.0424,0.0543,0.037,,,0.0528,0.0354,0.0383,0.0367,0.0378
G39D,0.0416,0.0476,0.0498,0.0514,,,0.0474,0.0531,0.0434,0.0426,0.0501,0.0479,0.0396,0.0438,0.0447,0.0499,,,
G39S,0.0286,0.0434,0.0426,0.0496,0.0428,,0.0379,0.0525,0.0537,0.0439,0.0466,,0.032,,0.0411,0.0428,0.0567,0.051,
I43V,0.108,0.068,0.0584,0.0617,0.0768,0.0678,,0.0736,,,0.0657,0.0734,0.0557,0.0887,0.102,0.0657,0.072,0.069,
V229Y,0.0828,0.0467,0.0652,0.0718,0.0597,0.0617,,,0.0662,0.0649,0.0635,0.114,0.0777,0.118,0.0749,0.0523,0.111,0.0661,
Q118G,0.0941,0.0681,0.0785,0.0661,0.061,0.0829,0.0908,,0.0778,0.0732,0.0699,0.0744,,0.149,,0.0661,0.121,,
T31R,0.0706,,0.0568,0.0546,,0.0579,0.104,0.0608,0.0538,0.0604,,0.0747,0.0529,0.0662,0.0735,0.0606,0.071,0.0884,0.0741
T31G,0.0667,,0.0553,0.0482,0.059,0.0665,,0.069,0.0577,,0.0535,0.0689,,0.0787,0.0654,0.0545,0.0931,0.0595,
A196N,0.0871,,0.0602,,0.0736,0.073,0.071,,0.0643,,0.0711,0.088,0.0696,0.0958,0.0782,,0.145,0.0638,
V113D,0.0617,0.0578,0.0507,0.0486,0.0524,0.0476,,0.0502,0.0559,0.0414,0.051,0.0594,0.041,,0.054,,0.0538,0.0684,
G63N,0.072,0.0574,0.0645,,0.0697,0.0674,0.0434,0.0734,0.0594,0.0555,0.0593,0.067,0.0657,0.105,0.0699,0.0733,0.113,0.0528,
V57T,0.087,0.0556,0.0726,,0.0669,0.0795,0.0891,0.0989,0.0588,0.0872,0.0748,,,,0.0886,,0.124,0.0598,
V57K,0.0204,,0.0665,0.0569,,0.0889,,,0.0665,,,0.0831,,0.114,0.0768,0.0553,,,
P104Y,,0.0427,0.059,0.0556,0.0436,0.0632,,0.0609,0.0552,,0.0569,0.0558,,,0.0565,0.0534,0.0396,0.0427,0.0505
R204E,0.108,0.0779,0.097,,0.0807,0.0218,0.0982,,0.0762,,,,0.0706,0.158,0.09,0.0717,0.151,0.0692,
E195D,0.0897,,0.0663,0.0615,0.0834,,,0.0537,0.0672,0.0891,0.0578,0.0777,,0.104,0.075,,,,
T55E,0.0703,0.0665,0.0659,0.0647,0.0735,0.0561,,0.0855,0.0688,0.066,0.0674,0.0665,0.0849,0.0427,0.0842,0.0598,0.128,0.0578,
T71A,0.0806,0.0607,0.0627,0.0591,0.086,0.0562,,0.0908,0.0599,0.0648,0.0578,0.0683,,,0.133,0.0658,0.121,0.0678,
N45Q,0.063,0.0659,0.0551,0.0832,0.0576,0.0438,0.0543,0.0371,0.0673,0.0657,0.0588,0.0636,,0.0541,0.059,,0.0627,0.0688,
T132Y,0.0341,0.0608,0.0434,0.0533,0.0636,0.0176,,0.0694,0.0533,0.057,,0.0521,,0.0549,0.0605,,0.0608,,
